Test results reported in PubChem BioAssay AID504466 (National Center for Advancing Translational Sciences (NCATS), 2011).
The campaign covered roughly 330,000 compounds. About 4,200 (1.3%) were called active. Inconclusive results, whose numbers are uncertain, are shown with a selection of clear calls. Calls follow the shape of the dose curve; as a rule, active = well fitted activation curve with a large enough effect; inconclusive = small, poorly fitted or top-dose-only effect; inactive = no such curve, though single readings can be large or run the other way. A potency beside an inconclusive call is a rough fit, not a confirmed value.

Assay: qHTS screen for small molecules that induce genotoxicity in human embryonic kidney (HEK293T) cells expressing luciferase-tagged ELG1; also: nearly all actives have a fitted effect of over 60% in size; as to activity change, positive = activation: % of control where 0% means no effect
Conditions: HEK293T ELG1-luciferase reporter, luminescence, 16 h; series mostly up to 46 µM; activity change, positive = activation: at the top concentration
How it was run: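 Genotoxicity was scored as increased ELG1-luciferase reporter signal, measured by ONE-Glo luminescence (30 min, room temperature). Compound or vehicle exposure of the HEK293T reporter cells lasted 16 hr at 37°C.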
Potency is read from the fitted curve at half-maximal effect; tags tell the direction and shape of the fitted curve.

| Structure (SMILES) | activity change, positive = activation | Potency |
| --- | --- | --- |
| O=C(c1ccc(S(=O)(=O)c2cccc(Cl)c2)c([N+](=O)[O-])c1)N1CCN(c2ccccn2)CC1 | inactive: -12.6% |  |
| O=c1/c(=C/c2ccc(O)cc2)sc2n1CCCN=2 |  | inconclusive: 11.6 µM [activator, partial curve] |
| O=C(CSc1nnc(NC(=O)c2ccccc2Cl)s1)Nc1ccc2c(c1)oc1ccccc12 |  | inconclusive: 9.2 µM [activator, partial curve] |
| N#C/C(=C\c1ccco1)c1nc2ccccc2s1 |  | active: 7.31 µM |
| COc1ccc2c(c1)c1nc3n(c(=O)c1n2CC(=O)Nc1ccccc1)CCS3 |  | inconclusive: 23.1 µM [activator, partial curve, poor fit] |
| CCn1c(SCC(=O)c2cc(OC)ccc2OC)nnc1C(C)C | inactive: -1.27% |  |
| Cc1occc1C(=O)N/N=C/c1c[nH]c2ccccc12 |  | inconclusive: 18.4 µM [activator, single point] |
| CCCCCCCCNC(=O)/C(C#N)=C/c1ccccc1[N+](=O)[O-] |  | inconclusive: 29.1 µM [activator, partial curve, poor fit] |
| O=C(Nc1ccccc1)c1cccc(-c2nnc(-c3ccccc3)o2)c1 |  | inconclusive: 25.9 µM [activator, single point] |
| O=C(c1ccc(COc2ccc(Cl)cc2)cc1)N1CCCCC1 |  | inconclusive: 16.4 µM [activator, single point] |
| Cc1ccc2nc3c(cc(C(=O)NCc4ccco4)c(=N)n3Cc3ccco3)c(=O)n2c1 | inactive: -8.05% |  |
| CCc1ccc(NC(=O)C(=O)NCc2ccccn2)cc1 |  | inconclusive: 18.3 µM [activator, partial curve] |
| Cc1nc(SCc2cccc(F)c2)c2oc3ccccc3c2n1 | inactive: -8.17% |  |
| O=C(NCC1CCCO1)c1c(O)c2ccccc2[nH]c1=O (stereo unspecified) |  | inconclusive: 10 µM [activator, partial curve, poor fit] |
| CCn1c(=O)cc(OCC(=O)Nc2cc(C)ccn2)c2ccccc21 |  | inconclusive: 29.1 µM [activator, partial curve, poor fit] |
| Clc1ccc(/C=N/c2c(-c3ccco3)nc3ccccn23)cc1 |  | inconclusive: 11.6 µM [activator, partial curve] |
| CCn1c(-c2cc3ccccc3cc2O)n[nH]c1=S |  | inconclusive: 18.4 µM [activator, partial curve, poor fit] |
| CC1CCC(NC(=O)c2ccc3snnc3c2)CC1 (stereo unspecified) |  | inconclusive: 13 µM [activator, partial curve, poor fit] |
| CCCC(=O)Nc1ccc2c(c1)nc1n2CCOC1 | inactive: 5.74% |  |
| CC(C)OC(=O)c1ccc2nc3ccccc3nc2c1 |  | inconclusive: 2.31 µM [activator, partial curve] |
| O=C(Cc1ccc(Br)cc1)NNC(=O)Nc1ccc(Cl)cc1 | inactive: 2.42% |  |
| COc1ccc(-n2ncc3c(NCCN4CCOCC4)ncnc32)cc1 |  | active: 14.6 µM |
| C/C(=N\NC(=O)c1c[nH]c2ccccc12)c1ccco1 |  | active: 7.94 µM |

| Structure (SMILES) | activity change, positive = activation | Potency |
| --- | --- | --- |
| CC(C)(C)c1ccc(-c2noc(-c3ccc4c(c3)CCO4)n2)cc1 |  | inconclusive: 18.3 µM [activator, single point] |
| COc1ccccc1C(=O)N/N=C(\C)c1ccc(NC(=O)Cc2ccccc2)cc1 |  | inconclusive: 14.6 µM [activator, single point] |
| COc1ccc(C(=O)Nn2cnc3scc(-c4cccs4)c3c2=O)c(O)c1 |  | active: 7.31 µM |
| CCOC(=O)C1CCN(C(=O)Nc2ccc3c(c2)nc(C)n3C)CC1 |  | inconclusive: 10.3 µM [activator, partial curve, poor fit] |
| CN1CCN(c2ccc(NC(=O)c3ccc(Br)o3)cc2)CC1 |  | active: 16.4 µM |
| Cc1ccc(C)c(C(=O)O/N=C(\N)c2ccc(Br)cc2)c1 |  | inconclusive: 20.6 µM [activator, single point] |
| Cc1cccc(C(=O)NNC(=O)c2cc3cc4ccccc4nc3s2)c1 |  | inconclusive: 23.1 µM [activator, partial curve, poor fit] |
| CCOC(=O)Cc1csc(NC(=O)C(C)(C)CC)n1 |  | inconclusive: 35.5 µM [activator, single point] |
| O=C(/C=C/c1ccco1)Nc1cccnc1Cl |  | inconclusive: 18.3 µM [activator, partial curve] |
| COc1cccc(C(=O)/C=C/Nc2ccc(NC(C)=O)cc2)c1 |  | inconclusive: 23.1 µM [activator, single point] |
| COc1ccc(C(=O)/C=C/c2ccc(OC(=O)c3cc(OC)c(OC)c(OC)c3)cc2)cc1 |  | inconclusive: 29.1 µM [activator, partial curve, poor fit] |
| CC(C)(C)N1CC(C(=O)O)CC1=O (stereo unspecified) | inactive: 0.364% |  |
| Nc1nonc1-c1noc(CCCN2C(=O)c3ccccc3C2=O)n1 |  | inconclusive: 23.1 µM [activator, partial curve] |
| Cc1ccc(OCC(=O)N2CCc3ccccc32)cc1 |  | active: 16.4 µM |
| Cc1ccc(NC(=O)CN2C(=O)S/C(=C\c3ccc(-c4cccc(C(=O)O)c4C)o3)C2=O)cc1C | inactive: 0.497% |  |
| CC(=O)NC(Cc1ccccc1)C(=O)OCC(=O)c1ccccc1 (stereo unspecified) | inactive: 1.69% |  |
| Cc1ccccc1/C=N/Nc1ncnc2nc[nH]c12 |  | inconclusive: 18.3 µM [activator, partial curve] |
| CC(C)(C)OC(=O)N/N=C\c1ccc(OC(=O)c2cccs2)cc1 |  | inconclusive: 18.4 µM [activator, partial curve, poor fit] |
| Cc1c(C(=O)Nc2nnc(C3CC3)s2)oc2c(Cl)cccc12 |  | inconclusive: 29.1 µM [activator, single point] |
| COc1cccc(-c2nn(-c3ccccc3)cc2CNC(C)Cn2cncn2)c1 (stereo unspecified) |  | inconclusive: 25.9 µM [activator, partial curve, poor fit] |
| CCCC(=O)c1ccc(N2CCCCCC2)c(F)c1 |  | inconclusive: 16.4 µM [activator, partial curve, poor fit] |
| Cc1cnc(NC(=O)COc2cccc3c2OC(C)(C)C3)s1 | inactive: -3.36% |  |
| COc1ccc(NCc2ccc([N+](=O)[O-])s2)c(OC)c1 |  | inconclusive: 20.6 µM [activator, partial curve, poor fit] |
